This passage reports max response and AC50 results from PubChem BioAssay (NCATS).

Some of the results follow. Shown are side measurements of this screen, not its main read-out; they come without a call. Compounds called inactive in the main read-out are mostly missing here. Potencies come from curve fits of mixed quality, noted in brackets.

The term AC50 denotes the midpoint of the concentration-response curve, whichever way the signal moves.

A short description of the assay: qHTS Assay for Lipid Storage Modulators (AID 1519). The note with it: Drosophila S3 cells, BODIPY lipid droplet/cell ratio, laser cytometry, cells loaded with oleic acid. The method, boiled down: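 Cells seeded at 5,000 per well were treated with compounds over a concentration series and loaded with oleic acid (400 uM, as added). Lipid droplet fluorescence (488 nm excitation, 500-530 nm channel) was read by laser-scanning cytometry and normalized to 20 uM Triacsin C.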
Background: qHTS replaces the single test concentration by a dilution series.

Where [1] appears, read: measured here: cell count channel max response.
Where [2] appears, read: measured here: cell number channel AC50.
Setting [3] is: measured here: lipid (BODIPY) channel AC50.
Where [4] appears, read: measured here: lipid channel max response.
Tags tell the direction and shape of the fitted curve.

Regarding `CC(C)=CCc1c(O)cc2occ(-c3ccc4c(c3)OCO4)c(=O)c2c1O`, the max response runs as follows: under setting [1], -64.5%; under setting [4], -102%. For the same compound, the concentration at half-maximal activity (AC50) reads like this: under setting [2], 22.4 µM [falling, partial curve]; under setting [3], 25.1 µM [falling, single point].
For `CC(C(=O)O)c1ccc(N2Cc3ccccc3C2=O)cc1` (configuration not stated), the max response is, setting by setting: under setting [1], 38.9%; under setting [4], 64.7%. Also, the half-maximal activity concentration (AC50) is, setting by setting: under setting [2], 39.8 µM [rising, single point]; under setting [3], 39.8 µM [rising, single point].
Take `Cc1cnc(CNc2cc(-c3ccc(C(=O)N(C)C)cc3)ncn2)cn1`: the max response was determined as 33.2% under setting [1] and 37.4% under setting [4]. Also, the half-maximal activity concentration (AC50) runs as follows: under setting [2], 17.8 µM [rising, single point]; under setting [3], 20 µM [rising, single point].
`Cn1c(=O)c(-c2cc(F)cc(F)c2)nc2cnc(Nc3ccccc3)nc21`: the max response runs as follows: under setting [1], 32.1%; under setting [4], -107%. The AC50 was 2.51 µM [rising, partial curve, poor fit] under setting [2] and 39.8 µM [falling, single point] under setting [3].
Consider `CC(=O)NCCNc1nc(-c2cccc(C#N)c2)nc2ccccc12`, for which the max response is, setting by setting: under setting [1], 33.4%; under setting [4], 37.4%. Besides, the AC50 is 0.355 µM [rising, full curve, poor fit] under setting [2] and 0.355 µM [rising, full curve, poor fit] under setting [3].
As to `N#CCCn1c(=O)c(-c2cccs2)nc2cnc(Nc3ccccc3)nc21`, the max response is 47.5% under setting [1] and -45.4% under setting [4]. The half-maximal activity concentration (AC50) by setting is: under setting [2], 1.78 µM [rising, full curve]; under setting [3], 5.62 µM [falling, full curve, poor fit].
Regarding `COc1ccc(-c2nc3cnc(N(C)C)nc3n(-c3ccccc3)c2=O)cc1`, the max response by setting is: under setting [1], 45.7%; under setting [4], -21.8%. The AC50 is, setting by setting: under setting [2], 7.08 µM [rising, partial curve, poor fit]; under setting [3], 0.224 µM [rising, partial curve].
In the case of `COc1cccc(Cn2c(=O)cnc3cnc(OC)nc32)c1`, the max response under setting [1] worked out at 39.8% and the max response under setting [4] was determined as 38.3%. For the same compound, the AC50 under setting [2] was 31.6 µM [rising, single point] and the AC50 under setting [3] was 17.8 µM [rising, single point].
On to `Cc1noc(C)c1C(=O)N1CCC[C@@]2(CCN(Cc3ccc(C#N)cc3)C2)C1`, for which the max response reads like this: under setting [1], 35.6%; under setting [4], 46.4%. For the same compound, the AC50 is 22.4 µM [rising, partial curve, poor fit] under setting [2] and 2.24 µM [rising, partial curve, poor fit] under setting [3].
`Cc1noc(C)c1-c1cncnc1-n1ccnc1`: the max response runs as follows: under setting [1], 26.3%; under setting [4], 33.1%. Further, the AC50 was 7.08 µM [rising, partial curve, poor fit] under setting [2] and 0.282 µM [rising, full curve, poor fit] under setting [3].
On to `Cc1ccccc1-c1nc(Nc2ccncc2)c2ccccc2n1`, for which the max response was 4.67% under setting [1] and 4.3% under setting [4]. Moreover, the AC50 is, setting by setting: under setting [2], 0.794 µM [rising, partial curve]; under setting [3], 0.447 µM [rising, partial curve].
With `O=c1c(-c2ccc(F)c(F)c2)nc2cncnc2n1-c1ccccc1`, the max response is 41.2% under setting [1] and 50.6% under setting [4]. Besides, the AC50 under setting [2] was 3.55 µM [rising, partial curve, poor fit] and the AC50 under setting [3] is 0.178 µM [rising, full curve, poor fit].
On to `CCCC[C@H](CC)CN=C(N)NC(N)=NCCCCCCN=C(N)NC(N)=NC[C@@H](CC)CCCC`, for which the max response by setting is: under setting [1], -82.7%; under setting [4], -93.4%. Further, the AC50 runs as follows: under setting [2], 15.8 µM [falling, single point]; under setting [3], 15.8 µM [falling, partial curve, poor fit].
With `COc1ncc2nc(-c3ccccc3)c(=O)n(C3CC3)c2n1`, the max response was 14.1% under setting [1] and 21.6% under setting [4]. Moreover, the AC50 by setting is: under setting [2], 3.16 µM [rising, single point]; under setting [3], 2.51 µM [rising, partial curve, poor fit].
With `O=C1C=CC2=C3c4cc(O)c(O)cc4CC3(O)COC2=C1O` (configuration not stated), the max response was determined as 33.6% under setting [1] and 48.9% under setting [4]. Besides, the AC50 is 10 µM [rising, partial curve, poor fit] under setting [2] and 14.1 µM [rising, partial curve, poor fit] under setting [3].
On to `c1ccc2c(NC3CC3)nc(-c3ccoc3)nc2c1`, for which the max response came to 23.3% under setting [1] and 32.4% under setting [4]. Besides, the AC50 is 2 µM [rising, partial curve, poor fit] under setting [2] and 0.0562 µM [rising, full curve, poor fit] under setting [3].
Turning to `COc1ccccc1CNc1ccnc(-c2ccc(C(=O)N(C)C)cc2)n1`, the max response under setting [1] is 25.2% and the max response under setting [4] worked out at 30.6%. For the same compound, the AC50 by setting is: under setting [2], 0.562 µM [rising, full curve]; under setting [3], 0.562 µM [rising, full curve].
As for `OC[C@@H](O)COc1cccc2ccccc12`, the max response reads like this: under setting [1], 30.4%; under setting [4], 44.2%. The AC50 runs as follows: under setting [2], 10 µM [rising, full curve, poor fit]; under setting [3], 7.94 µM [rising, full curve, poor fit].
